The source gives no read counts; variants with many changes may rest on few reads.

34 variants from the RNAGym collection of RNA variant scans (doi:10.1093/nar/gkz1192) can be followed below.

B1: CPEB3 Ribozyme (parent)
chain: UAACAGGGGGCCACAGCAGAAGCGUUCACGUCGCAGCCCCUGUCAGAUUCUGGUGAAUCUGCGAAUUCUGCUGUAUAUCUC

Variants of B1 are the subject of this series. The series is described as follows: self-cleavage, relative activity (ratio to wild type); higher = more cleavage; in vitro, sequencing. An outline of the steps:
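CPEB3 self-cleaving ribozyme mutant libraries were made by rounds of error-prone PCR, barcoded, and transcribed in vitro with T7 RNA polymerase for 5 hours at 37°C. Cleavage occurred during transcription and a 15 min DNase I step before EDTA stop. RNAs were reverse transcribed with template switching and Illumina-sequenced, with DNA sequencing mapping barcodes to variants. Relative activity is the variant's cleaved/total read fraction divided by wild type's (minimum 5 reads), averaged across three batches.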
For CAACUGGGGGCCACAGCAGAAGCGUUCACGUCGCAGCCCCUGUCAGAUUCUGGUGAACCUGCGAAUUCUGCUGUAUAUCUC [U1C A5U U58C], the self-cleavage is 0.65. For CAUCAGGGGGCCACAGCAAAAGCGUUCACGUCGCAGCCCCUGUCAGGUUCUGGUGAAUCUGCGAAUUCUGCUGUAUAUCUC [U1C A3U G19A A47G] the value was 0.41.

As to CAGCAGGGGGCCGCAGCAGAAGCGUUCACGUCGCAGCCCCCGUCAGAUUCUGGUGAAUCUGCGAAUUCUGCUGUAUAUCUC [U1C A3G A13G U41C], the self-cleavage was found to be 0.54. Take CAUCAGGGGGCCACGGCAGAAGCGUUCACGUCGCAGCCCCUGUCAGAUUCUGGUGGAUCUGCGAAUUCUGCUGUAUAUCCC [U1C A3U A15G A56G U80C]: the self-cleavage came to 0.75.

On to CAACGGGGGGCCACAGCAGAAGCGUUCACGUCGCAGCCCCUGUCAGAUACUGGUGAAUCUGCGAAUUCUGCUGUAUAUCUC [U1C A5G U49A], for which the self-cleavage is 0.14. In the case of CAGCAGGGGGCCACAGCAGAAGCGUUCACGUCGCAGCCCCUGUCAGAUUCUGGUGAAUCUGCGAGUUCUGCUGUAUAUCUC [U1C A3G A65G], the self-cleavage amounted to 0.5.

With CAACGGGGGGCCACAGCAGAAGCGUCCACGUCGCAGCCCCUGUCAGACUCUGGUGAAUCUGCGAAUUCUGCCGUAUAUCUC [U1C A5G U26C U48C U72C], the self-cleavage came to 0.09.

For the variant CAGCAGGGGGUCACAGCUGAAGCGUUCACGUCGCAGCCCCUGUCAGAUUCUGGUGAAUCUGCGGGUUCUGCUGUAUACCUC [U1C A3G C11U A18U A64G A65G U78C], the self-cleavage was determined as 0.04. With CAACUGGGGGCCACAGCAGGAGCGUUCACGUCGCCGCCCCUGUCAGAUUCUGGUGAAUCUGCGGAUCCUGCUGUAUAUCUC [U1C A5U A20G A35C A64G U67C], the self-cleavage is 0.94. For CAGCAGGGGGCCACAGCAGAAGCGUUCACGUCGCAGCCCCUGUCAGAUUCUGGUGAAUCUGCGAAUUCUGCCGUAUAUCUC [U1C A3G U72C] the value was 1.21. The figure for CAACGGGGGGUCACAGCAGAAGCGUUCACGUCGCAACCCCUGUCAGAUUCGGGUGAAUCUGCGAACUCUGCUGUUUAUCUC [U1C A5G C11U G36A U51G U66C A75U] is 0.07. Regarding CAACGGGGGGCCACAGCAGAAGCGUUCACGUCGCAGCCUCUGUCAGAUUCUGGUGAAUCUGCGAAUCCUGCUGUAUAUCUC [U1C A5G C39U U67C], the self-cleavage was 0.17. As to CAACGGGGGGCCACAGCAGAAGCGUUCUCGUCGCAGCCCCUGACAGAUUCUGGUGAGUCUGCGAAUUCUCCUGUAUAUCUC [U1C A5G A28U U43A A57G G70C], the self-cleavage came to 0.15.

For CAGCAGGGGGCCACAGCAGAAGCGUUCACGUCGCAGCCCCUGUCAGAUUCUGGUGAAUCUGCGAAUUCUGCUGUGUAUCUC [U1C A3G A75G], the self-cleavage came out at 0.7. CAGCAGGGGGCCACAGCAGAAGCGUACACGUCGCAGCCCCUGUCAGAUUCUUGUGAGUCUGCGAAUUCUGCUGUAUAUCCC [U1C A3G U26A G52U A57G U80C]: the self-cleavage was 0.87.

Turning to CAACCGGGGGGCACAGCAGAAGCGUUCGCGUCGCAGCCCCUGUCAGAUUCAGGUGAAUCUGCGAAUUCUGCUGUAUAUCUC [U1C A5C C11G A28G U51A], the self-cleavage is 0.11.

With CAACGGGGGGCCACAGCAGAUGCGUCCACGUCGCAGCCUCUGUCAGACUCUGGUGAAUCUGCGAAUCCUGCUGUAUAUCUC [U1C A5G A21U U26C C39U U48C U67C], the self-cleavage stood at 0.14. CAGCAGGGGGCCACAGCAGAAGCGUUCACAUCGCUGCCCCUGUCAGAUUCUGGUGAAUCUGCGGAUUCUGCUGAAUAUCUC [U1C A3G G30A A35U A64G U74A]: the self-cleavage turned out to be 0.31. The figure for CAGCAGGGGGCCACAGCAGAAGCGUUCACGUCGCAGCCCCUGUCAAACUCUGGUGUAUCUGCGUAUUCUGUUGUAUAUCUC [U1C A3G G46A U48C A56U A64U C71U] is 0.03; for CAACAGGGGGCCCCAGCAGAGGCGUUCACGUCGCAGCCCCUGUCAGAUUCUGGUGAAUCUGCGAAUUCUGCUGUAUAUCUC [U1C A13C A21G] it is 0.28; for CAUCCGGGGGCCACAGCGGGAGCGAUCACGUCGCAGCCCCUGUCAGAUUCUGGUGAAUCUGCGAAUUCUGCUGUAUAUCUC [U1C A3U A5C A18G A20G U25A] it is 0.71. Take CAUCAGGGGGCCACAGCAGGAGCGUUCACGUCGCAGCCCCCGUCAGAUUCUGGUGAAUCUGUGAAUUCUGCUGUAUAUCUC [U1C A3U A20G U41C C62U]: the self-cleavage was 0.1. The figure for CAACGGGGGGCCACAGCAGAAGCGUUCACGUCGCAGCCCCUGUCAGAUUCUGGUGAAUCUGCGAAUCCUGGUGUAUGUCUC [U1C A5G U67C C71G A77G] is 0.12.

With CAACAGGGGGCCCCAGCCGAAGCGUUCACGUCGCAGCCCCUGUCAGAUUCUGGUGAAUCUGCGAAUUCUGCUGUAUAUCUC [U1C A13C A18C], the self-cleavage was determined as 0.39. Consider CAGCAGGGGGCCACAGCAGGAGCGUUCACGUCGCAGCCCCCGCCAGAUUCUGGUGAAUCUGCGAAUUCUGCUGUAUAUCUC [U1C A3G A20G U41C U43C], for which the self-cleavage turned out to be 0.71. For CAACGGGGGGCCACAGCAGAUGCGUUCACGUCGCAGCCUCUGUCAGAUUCUGGUGAAUCUGCGAAUCCUGCUGCAUAUCUC [U1C A5G A21U C39U U67C U74C] the value was 0.05; for CAACUGGGGGCCACGGCAGAAGCGUCCACGUAGCAGCCCCUGUCAGAUUCUGGUGAAUCUGCGAAUUCUGCUGUAUAUCUC [U1C A5U A15G U26C C32A], 0.31; for CAACUGGGGGCCACAGCAGAAGCGCUCACGUCGCAGCCCCUGUCGGACUCAGGUGAAUCUGCGAAUUCUGCUGUAUAUCUC [U1C A5U U25C A45G U48C U51A], 0.04. The figure for CAACAGGGGGCCCCAGCAGAAGCGACCACGUCGCAGCCCCUGUCAGAUUCUGGUGAAUCUGCGAAUCCUGCUGUAUAUCUC [U1C A13C U25A U26C U67C] is 0.19; for CAGCUGGGGACCACGGCAGAAGCGUUCACGUCGCGGCCCCUGUCAGAUUCUGGAGAAUCUGCGAAUUCUGCUGUAUAUCUC [U1C A3G A5U G10A A15G A35G U54A] it is 0.59; for CAACGGGGGGCCACAGCAGAAGCGUCCACGUCGCAGCCCCUGUCAGAUUCUGGUGAAUCUGAGAAUUCUGCUGUAUAUCUC [U1C A5G U26C C62A] it is 0.39. The figure for CAACGGGGGGCCACAGCAGAAGCGUUCACGUCGCAGCCCCUGUCAGAUUCCGGUGAGUCUGUGAGUCCUGCUGUAUAUCUC [U1C A5G U51C A57G C62U A65G U67C] is 0.09; for CAACGGGGGGCCACAGCAGAAGCGUACACGUCGCAGCCCCUGUCAGAUUCUGGUGAAUCUGCGAAUUCUGCUGAAUACCUC [U1C A5G U26A U74A U78C] it is 0.67. With CAACUGGGGGCCACAGCAGAGGCGUUCACGUCGCAGCCCCUGUCAGAUUCUGGUGAAUCUGCGAAUUCCGCUGUAUAUCCC [U1C A5U A21G U69C U80C], the self-cleavage was found to be 0.17.
